Data published in US20200085917A1 (UNIVERSITY OF PITTSBURGH OF THE COMMONWEALTH SYSTEM OF …, published 2020).

Tests used:
Test in all cases: GST pull-down, LC-MS/MS
Rtn1_IPI:IPI00395193.1 = biological target: T1, Rtn1_IPI:IPI00395193.1 (mouse, UniProt Q8K0T0 1-780, limits assumed)
T1 sequence (looked up): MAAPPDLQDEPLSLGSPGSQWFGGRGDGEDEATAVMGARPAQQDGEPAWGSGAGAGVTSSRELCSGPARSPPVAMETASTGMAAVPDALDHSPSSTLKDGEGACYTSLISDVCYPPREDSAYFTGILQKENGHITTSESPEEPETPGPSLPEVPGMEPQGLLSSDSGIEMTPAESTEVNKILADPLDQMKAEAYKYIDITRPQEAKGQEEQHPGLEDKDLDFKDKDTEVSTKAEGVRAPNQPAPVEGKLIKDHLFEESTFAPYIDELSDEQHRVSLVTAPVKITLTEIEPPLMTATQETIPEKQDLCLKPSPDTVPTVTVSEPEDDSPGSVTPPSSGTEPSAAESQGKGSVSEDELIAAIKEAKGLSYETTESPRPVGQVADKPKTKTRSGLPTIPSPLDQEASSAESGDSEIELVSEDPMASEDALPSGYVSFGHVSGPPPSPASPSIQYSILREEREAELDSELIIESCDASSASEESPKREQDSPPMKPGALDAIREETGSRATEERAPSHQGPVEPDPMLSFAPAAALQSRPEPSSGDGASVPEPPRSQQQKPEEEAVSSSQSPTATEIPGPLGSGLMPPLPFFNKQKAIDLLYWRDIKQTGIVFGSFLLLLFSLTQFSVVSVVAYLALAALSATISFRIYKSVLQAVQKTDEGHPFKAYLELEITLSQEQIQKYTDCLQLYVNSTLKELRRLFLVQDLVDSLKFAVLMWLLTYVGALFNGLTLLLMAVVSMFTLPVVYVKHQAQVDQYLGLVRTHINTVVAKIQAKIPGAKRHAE
Description: (§1) Extracts were spun at 14,000 r.p.m. at 4° C., and clarified supernatants were incubated with glutathione 4B Sepharose beads (GE Healthcare) at 4° C. overnight. The glutathione beads were then washed extensively with ice-cold TNE buffer, and bound proteins were subjected to SDS-PAGE followed by immunoblotting analysis. For the samples subjected to mass spectrometry, glutathione bead-bound proteins from equal amounts (600 μg) of mitochondria were further washed with high stringency RIPA buffer following TNE buffer wash to decrease nonspecific interaction. Proteins were then eluted from the glutathione beads in SDS sample buffer, separated by SDS-PAGE and stained with Coomassie. Proteins in the gel were digested with trypsin and analyzed by mass spectrometry (LC-MS/MS) at the Taplin Biological Mass Spectrometry Facility (Harvard Medical School, Boston, Mass.).

Cyc1_IPI:IPI00132728.2 = biological target: T2, Cyc1_IPI:IPI00132728.2 (mouse, UniProt Q9D0M3 85-325)
T2 sequence (looked up): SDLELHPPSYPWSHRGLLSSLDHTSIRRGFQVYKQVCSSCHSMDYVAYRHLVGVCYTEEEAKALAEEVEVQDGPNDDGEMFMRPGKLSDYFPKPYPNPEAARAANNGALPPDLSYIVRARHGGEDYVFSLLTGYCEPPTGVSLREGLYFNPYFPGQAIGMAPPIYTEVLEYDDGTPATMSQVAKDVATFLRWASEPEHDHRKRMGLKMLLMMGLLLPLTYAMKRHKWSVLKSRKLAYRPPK
Description: as §1

Sfxn1_IPI:IPI00115454.3 = biological target: T3, Sfxn1_IPI:IPI00115454.3 (mouse, UniProt Q99JR1 2-322)
T3 sequence (looked up): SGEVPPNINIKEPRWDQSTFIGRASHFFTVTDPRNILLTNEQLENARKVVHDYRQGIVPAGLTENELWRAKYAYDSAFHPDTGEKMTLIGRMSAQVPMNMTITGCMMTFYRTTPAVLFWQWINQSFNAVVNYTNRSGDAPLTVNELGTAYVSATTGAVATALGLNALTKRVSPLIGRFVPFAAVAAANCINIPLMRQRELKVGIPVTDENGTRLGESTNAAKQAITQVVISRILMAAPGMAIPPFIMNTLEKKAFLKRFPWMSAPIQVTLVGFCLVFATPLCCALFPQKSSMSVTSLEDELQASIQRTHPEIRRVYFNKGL
Description: as §1

Dci_IPI:IPI00114416.1 = biological target: T4, Dci_IPI:IPI00114416.1 (mouse, UniProt P42125 29-289)
T4 sequence (looked up): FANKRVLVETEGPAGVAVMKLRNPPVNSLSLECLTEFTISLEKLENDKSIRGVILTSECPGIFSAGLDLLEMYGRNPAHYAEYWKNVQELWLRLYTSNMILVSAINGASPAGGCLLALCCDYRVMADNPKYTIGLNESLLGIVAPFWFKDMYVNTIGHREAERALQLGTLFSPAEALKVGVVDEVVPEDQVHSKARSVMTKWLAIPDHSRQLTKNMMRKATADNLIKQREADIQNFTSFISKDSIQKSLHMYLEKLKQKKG
Description: as §1

Acp6_IPI:IPI00624175.1 = biological target: T5, Acp6_IPI:IPI00624175.1 (mouse, UniProt Q8BP40 26-418)
T5 sequence (looked up): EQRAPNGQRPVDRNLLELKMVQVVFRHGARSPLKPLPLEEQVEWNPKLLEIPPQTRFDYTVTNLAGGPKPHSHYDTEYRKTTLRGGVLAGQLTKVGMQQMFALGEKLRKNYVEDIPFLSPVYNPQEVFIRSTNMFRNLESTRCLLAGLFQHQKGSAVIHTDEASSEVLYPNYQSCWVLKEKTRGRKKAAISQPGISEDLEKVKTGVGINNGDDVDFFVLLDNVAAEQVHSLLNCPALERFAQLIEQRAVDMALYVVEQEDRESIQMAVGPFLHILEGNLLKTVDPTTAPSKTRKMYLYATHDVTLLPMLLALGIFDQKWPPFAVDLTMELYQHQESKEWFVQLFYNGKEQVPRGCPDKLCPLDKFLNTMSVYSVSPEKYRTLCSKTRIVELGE
Description: as §1

[1] = biological target: T6, Slc25a19_IPI:IPI00118826.1 (mouse, UniProt Q9DAM5 1-318)
T6 sequence (looked up): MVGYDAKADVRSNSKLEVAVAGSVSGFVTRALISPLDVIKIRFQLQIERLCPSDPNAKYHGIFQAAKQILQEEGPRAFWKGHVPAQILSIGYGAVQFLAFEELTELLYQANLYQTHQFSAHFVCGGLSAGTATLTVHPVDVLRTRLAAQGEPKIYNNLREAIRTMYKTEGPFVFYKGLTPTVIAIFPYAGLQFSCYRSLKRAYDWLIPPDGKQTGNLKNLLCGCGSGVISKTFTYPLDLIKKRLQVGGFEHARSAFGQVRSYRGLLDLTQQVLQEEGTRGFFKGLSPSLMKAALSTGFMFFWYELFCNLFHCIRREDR
Description: as §1

Oxa1l_IPI:IPI00308001.1 = Oxa1l_IPI:IPI00308001.1 (mouse, UniProt Q8BGA9 1-433, limits assumed)
Oxa1l_IPI:IPI00308001.1, sequence (Q8BGA9 whole entry): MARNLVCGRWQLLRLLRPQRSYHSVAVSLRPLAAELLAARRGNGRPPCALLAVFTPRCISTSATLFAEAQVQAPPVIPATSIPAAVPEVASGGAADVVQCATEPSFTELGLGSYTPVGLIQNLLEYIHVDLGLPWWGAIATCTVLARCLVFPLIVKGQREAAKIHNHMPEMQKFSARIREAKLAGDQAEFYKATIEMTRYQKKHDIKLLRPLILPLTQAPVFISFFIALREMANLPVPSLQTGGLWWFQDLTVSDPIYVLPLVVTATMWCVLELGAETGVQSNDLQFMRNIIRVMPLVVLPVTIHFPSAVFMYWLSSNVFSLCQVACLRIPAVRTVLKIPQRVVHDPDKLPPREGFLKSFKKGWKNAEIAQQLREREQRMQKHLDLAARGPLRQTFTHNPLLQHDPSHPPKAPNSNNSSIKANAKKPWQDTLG
Description: as §1

binding result (Rtn1_IPI:IPI00395193.1): no binding
binding result (Cyc1_IPI:IPI00132728.2): no binding
binding result (Sfxn1_IPI:IPI00115454.3): no binding
binding result (Dci_IPI:IPI00114416.1): no binding
binding result (Acp6_IPI:IPI00624175.1): no binding
binding result [1]: no binding
binding result (Oxa1l_IPI:IPI00308001.1): no binding
B1: GST alone (other)
chain: not shown
notes: Negative control of the pull-downs; also called control GST
